In all, about 45,000 compounds went through this assay and about 200 (0.44%) were called active. About 7% were inconclusive and are not listed. Calls come from the whole dose curve; as a rule, active = well fitted activation curve with a large enough effect; inconclusive = small, poorly fitted or top-dose-only effect; inactive = no such curve, though single readings can be large or run the other way. This is one part of the list.
experiment: qHTS of TDP-43 Inhibitors: NCGC Sytravon Library Screen; conditions: yeast TDP-43 toxicity rescue, BacTiter-Glo growth, 24 h; at 46.1 µM (top of the series); note: 0% is about no effect; nearly all actives have a fitted effect of over 55% in size
From the text: The goal of this project is to identify new chemical probes capable of reversing the toxicity associated with TDP-43 which is associated with frontotemporal lobar degeneration and amyotrophic lateral sclerosis. These compounds will provide a complementary approach to deciphering the tangled mechanisms of toxicity and protection that we have uncovered through genome-wide genetic screens and are beginning to uncover in a large-scale proteomics analysis with mass spectroscopy. To this end, a miniaturized assay was developed to be screened against the Molecular Libraries Small Molecule Repository (MLSMR) to discover TDP-43 inhibitors. Please note that in the set-up this yeast-based assay compounds that inhibit as TDP-43, have a read-out as activators. NIH Chemical Genomics Center [NCGC] NIH Molecular Libraries Probe Centers Network [MLPCN] Assay Submitter (PI): Susan Lindquist, Whitehead Institute/MIT MLPCN Grant: R21 NS060957
Dispense 2.5 microL yeast galactose medium per 1536-well plate, pin compound, dispense 2.5 microL TDP-43 expressing yeast in galactose medium at OD600=0.02 (pregrown in raffinose medium to mid-log phase) per well, incubate for 24 hr at 30 deg C, and cell growth will be measured using 5 microL of Bactiter/Glo reagent to entire plate and read using Luminescence Protocol in ViewLux.

Compound | growth rescue (activation)
O=C1CCN(C(=O)Cc2ccccc2[N+](=O)[O-])CC1 | inactive: 1.61%
CSc1ncc(/C=C2/C(=O)NC(=O)N(c3ccc(Cl)cc3)C2=O)cn1 | inactive: -6.63%
CCN1CCN(c2ccc([N+](=O)[O-])cc2C#N)CC1 | inactive: 8.26%
COc1ccccc1C(=O)Nc1ccc2c(c1)CC1(C(=O)N(C)C(=O)N(C)C1=O)C1CCCN21 (stereo not given) | inactive: 5.89%
Cc1cc(C)cc(N2C(=O)NC(=O)/C(=C/c3cccn3-c3ccc(Cl)cc3)C2=O)c1 | inactive: -10.4%
COc1ccccc1OP(=O)(Nc1cccnc1)Oc1ccccc1OC | inactive: 23.9%
C[C@]12C[C@@H](O)[C@H](O)CC1=CCC1C2CC[C@@]2(C)C1CC[C@@H]2O (stereo not given in full) | inactive: -11.7%
O=C1NC(=O)N(c2ccc3c(c2)OCO3)C(=O)/C1=C\c1ccc(-c2ccccc2C(=O)O)o1 | inactive: -0.718%
CCOP(=O)(OCC)C1(O)C(=O)Nc2ccccc21 (stereo not given) | inactive: -0.269%
CN(C)c1ccc(NC(=O)CN2C(=O)CN=C(c3ccccc3)c3ccccc32)cc1 | inactive: -0.335%
Cc1cccc(C)c1OCC(=O)Nc1ccc(Cl)cc1C(=O)c1ccccc1 | inactive: 21.8%
CCOc1cc(CNCCc2cccc(F)c2)ccc1OC | inactive: -11.2%
O=C(N/N=C/c1c(O)n(Cc2ccccc2)c(=O)[nH]c1=O)c1ccccc1 | inactive: 2.77%
Cc1ccc(N2C(=O)NC(=O)/C(=C\c3cc(C)n(-c4ccc(C(=O)O)cc4)c3C)C2=O)cc1 | inactive: 0.758%
O=c1c2ccccc2nc(-c2cccs2)n1-c1ccccc1 | inactive: 5.51%
O=c1c2ccccc2nc(CNc2ccccc2)n1-c1ccccc1 | inactive: 26.1%
Cc1cccc(N2C(=O)NC(=O)/C(=C\c3ccc(N4CCOCC4)cc3)C2=O)c1 | inactive: 16.8%
C[C@]12CCC3C(CC[C@H]4[C@H](O)[C@H](O)CC[C@]34C)C1CC[C@@H]2O (stereo not given in full) | inactive: 14.2%
Oc1cc2c(cc1CN1CCN(c3ccc(F)cc3)CC1)OCO2 | inactive: 8.49%
CC(=O)[C@H]1CCC2C3CC[C@H]4C[C@@H](O)CC[C@]4(C)C3CC[C@@]21C (stereo not given in full) | inactive: -10.8%
CN1C(=O)NC(=O)/C(=C\c2ccc([N+](=O)[O-])o2)C1=O | inactive: 0.911%
O=c1[nH]c(O)c(N=Nc2ccc([N+](=O)[O-])cc2)c(=O)[nH]1 | inactive: -2.71%
CCC(=O)N1CC(=O)Nc2ccc(Br)cc2C1c1ccccc1 (stereo not given) | inactive: -16.4%

Compound | growth rescue (activation)
COC(=O)C1C2c3ccccc3OC1(C)N=c1s/c(=C/c3cnn(C)c3C)c(=O)n12 (stereo not given) | inactive: 24.3%
O=C1/C(=C/c2cccc([N+](=O)[O-])c2)N2CCC1CC2 | inactive: -0.766%
Oc1ccccc1C1NCc2ccccc2-n2cccc21 (stereo not given) | inactive: -11.1%
C[C@]1(O)CCC2C3CC[C@H]4C[C@@H](OC(=O)CNC(=O)CN)CC[C@]4(C)C3CC[C@@]21C (stereo not given in full) | inactive: 17.7%
COc1cccc(C(=O)C2CCCN(Cc3ccc4nonc4c3)C2)c1 (stereo not given) | inactive: 14.3%
COc1ccc(C(=O)C2CCCN(Cc3ccon3)C2)cc1OC (stereo not given) | inactive: -22.8%
CCC(C)N1CCN(C(=O)COc2ccc3ccccc3c2)CC1 (stereo not given) | inactive: -6.67%
C[C@]12CCC3C(CC[C@H]4[C@@H](O)[C@H](O)CC[C@]34C)C1CCC2=O (stereo not given in full) | inactive: 26.5%
CCOP(=O)(Cc1cc(C#N)oc1C)OCC | inactive: 9.87%
CCc1ccccc1NC(=O)CNCc1ccccc1 | inactive: 6.91%
CCCCCCn1c(O)c(C=NCCN2CCCCC2)c(=O)[nH]c1=O | inactive: 6.75%
COc1cc(C=C2C(=O)NC(=O)NC2=O)ccc1OS(=O)(=O)c1ccccc1[N+](=O)[O-] | inactive: 5.85%
Nc1cc(Cl)c2nonc2c1[N+](=O)[O-] | inactive: 22.1%
O=[N+]([O-])c1ccc(NC2CCCC2)c2ccncc12 | inactive: 27.9%
O=C(Cn1cc(C(=O)c2ccccc2)c2ccccc21)Nc1ccc(Br)cc1 | inactive: 7.75%
COC(=O)C1=Nc2ccccc2/C1=C\c1c(O)n(-c2ccc(Br)cc2)c(=O)[nH]c1=O | inactive: 1.3%
O=c1[nH]c(=O)n(-c2ccc(F)cc2)c(O)c1C=NCCN1CCCCC1 | inactive: 4.51%
COc1ccccc1CCNC1CCCC(C)C1 (stereo not given) | inactive: 6.9%
CCN(CC)c1nc2c(C)cccn2c(=O)c1C=C1C(=O)NC(=O)NC1=O | inactive: -7.25%
CN(C)S(=O)(=O)c1cc(NC(=O)COC(=O)Cc2ccccc2)ccc1Cl | inactive: -11.9%
C[C@]12CCC3C(CC[C@H]4C[C@@H](O)CC[C@]34C)C1C[C@@H](O)[C@H]2O (stereo not given in full) | inactive: 20.4%
COc1ccc(N2CC2c2ccncc2)cc1 (stereo not given) | inactive: 0.0516%
O=C1Nc2ccccc2/C1=C/c1nc2ccccc2c(=O)n1-c1ccc(O)cc1 | inactive: -10.8%

Compound | growth rescue (activation)
CCN1CCN(C(=O)COc2ccc(S(=O)(=O)Nc3ccc(Cl)cc3)cc2)CC1 | inactive: 5.69%
CCN(CC)CCN=Cc1c(O)n(Cc2ccccc2)c(=O)[nH]c1=O | inactive: -4.43%
NC(=O)Cn1cc(C=C2C(=O)NC(=O)NC2=O)c2ccccc21 | inactive: 4.21%
CNC(C(=O)c1ccccc1)C(OC)c1ccc(C)cc1 (stereo not given) | inactive: 1.46%
COc1ccc(N2CCN(CCc3ccncc3)CC2)cc1 | inactive: -1.54%
NC(Cc1ccccc1)c1csc(Nc2ccccn2)n1 (stereo not given) | inactive: 13.8%
O=C(Nc1ccccc1)c1cc([N+](=O)[O-])ccc1N1CCNCC1 | inactive: 7.27%
CN1CC(C(=O)c2ccc(Cl)cc2)C(c2ccc(N(C)C)cc2)C1 (stereo not given) | inactive: 8.53%
Cc1ccsc1C(=O)C1CCCN(Cc2cccc(-n3cccn3)c2)C1 (stereo not given) | inactive: 2.85%
CC1(C)OC(c2ccccc2)=C/C(=C/C=C2C(=O)NC(=O)NC2=O)O1 | inactive: -19.6%
O=[N+]([O-])c1ccc(CN2CC=C(c3ccccc3)CC2)cc1 | inactive: 10.7%
CN(C)S(=O)(=O)c1cc(NC(=O)C[N+]23CCN(CC2)CC3)ccc1Cl | inactive: -8.01%
CN(C)CC1CCCCC1OC(=O)Cc1ccc(Cl)c([N+](=O)[O-])c1 (stereo not given) | inactive: 20.4%
Cc1cc(N2CCNCC2)nc2ccccc12 | inactive: 2.09%
C#C[C@]1(O)CCC2C3C(=O)C=C4C=CCC[C@]4(C)C3CC[C@@]21C (stereo not given in full) | inactive: 11.6%
C[C@]12CCC3C(CC[C@H]4C[C@H](O)[C@H](O)C[C@]34C)C1CC[C@@H]2O (stereo not given in full) | inactive: 16.9%
CN1CCN(Cc2cn3cccnc3n2)CC1 | inactive: 5.66%
O=C(Cc1ccccc1)OCC(=O)c1ccc(F)cc1 | inactive: 22.8%
Cc1nc(CCl)cc(=O)[nH]1 | inactive: 5.92%
O=c1[nH]c(=O)n(Cc2ccco2)c(O)c1/C=N/N1CCCCC1 | inactive: 9.98%
CCCCC/C(=N/O)c1c(C)[nH]c2ccccc12 | inactive: 28.8%
O=C(O)c1ccc(-n2c(O)c(/C=C3\C=Nc4ccccc43)c(=O)[nH]c2=O)cc1 | inactive: 5.34%
CCN1CCN(S(=O)(=O)c2cnc(Cl)c(Br)c2)CC1 | inactive: -10.5%

Compound | growth rescue (activation)
CCC(=O)c1ccc(OC(=O)N(C)c2ccccc2)cc1 | inactive: -1.82%
CC(=O)N1CCN(c2ccc([N+](=O)[O-])cc2C=C2C(=O)NC(=O)NC2=O)CC1 | inactive: -12.2%
C[C@@H]1CC[C@@]2(NC1)O[C@H]1C[C@H]3[C@@H]4CC=C5C[C@@H](O)CC[C@]5(C)[C@H]4CC[C@]3(C)[C@H]1[C@@H]2C | inactive: -0.0231%
Cc1ccc(-c2nc3ccccc3c(=O)n2-c2ccccn2)cc1 | inactive: 14.9%
CCOc1ccc(N=Cc2c(O)n(-c3cc(C)cc(C)c3)c(=O)[nH]c2=O)cc1 | inactive: 4.4%
O=c1[nH]c(=S)n(-c2ccccc2)c(O)c1C=NCc1ccccn1 | inactive: 10.4%
COc1ccc(-c2nn(Cc3ccccc3)cc2C(=O)NC2CC2)cc1OC | inactive: 16.8%
COc1cccc(C(=O)C2CCCN(Cc3ccc4nsnc4c3)C2)c1 (stereo not given) | inactive: 13.6%
CC(C)OC12Oc3ccccc3C=C1N1CCC2CC1 (stereo not given) | inactive: 6.21%
Cc1cc(/C=C2/C(=O)NC(=O)N(Cc3ccco3)C2=O)c(C)n1-c1ccc(C(=O)O)cc1 | inactive: -7.65%
C[C@]12CCC3C(CC[C@H]4C[C@@H](O)CC[C@]34C)C1CC[C@@H]2OC(=O)[C@H](N)CCCCN (stereo not given in full) | inactive: -26.9%
C/C(=N\N1CCCCCC1)c1c(O)n(-c2ccc(Cl)cc2)c(=O)[nH]c1=O | inactive: -7.27%
O=c1[nH]c(=O)n(Cc2ccccc2Cl)c(O)c1/C=C1/C=CC=N1 | inactive: -20.4%
COc1ccc(CN2CCN(C(=O)Cc3ccccc3)CC2)c(OC)c1 | inactive: 11.8%
CCNCCNc1ccc([N+](=O)[O-])c2cccnc12 | inactive: 8.08%
COCCO[C@H]1CC[C@@]2(C)C(=CCC3C2CC[C@@]2(C)C3CC[C@]2(C)O)C1 (stereo not given in full) | inactive: 3.73%
CC(C)C(=O)NC(Oc1ccccc1Cl)C(Cl)(Cl)Cl (stereo not given) | inactive: 8.62%
Cn1c(O)c(/C=C2\C=Nc3ccc(Br)cc32)c(=O)n(C)c1=O | inactive: 11.8%
C[C@]12CCC3C(CC[C@H]4C[C@H](O)CC[C@]34C)C1C[C@H](O)[C@H]2O (stereo not given in full) | inactive: 21.1%
COC(=O)c1cccc(N=Cc2c(O)n(Cc3ccc(F)cc3)c(=O)[nH]c2=O)c1 | inactive: 1.81%
CCCCn1c(O)c(/C=N/N2CCCCC2c2cccnc2)c(=O)[nH]c1=S (stereo not given) | inactive: -2.8%

From PubChem BioAssay AID1347073 (National Center for Advancing Translational Sciences (NCATS), 2019)
